The supplement of paper PMC3334620
Whole data set: some 33,000 sequences, median “E-score (-0.5 to 0.5)” near -0.013, cut for the highest 2% near 0.3. This is one part of the list.

Each sequence was assayed against T1, Msn1 (UniProt P22148) (assay: PBM E-score (8-mer binding enrichment) (E-score (-0.5 to 0.5)); higher = stronger / more preferred TF binding; most listed sequences are background and not binding sites). Conditions: protein concentration: 200 nM; construct: GST-full length.
T1 sequence: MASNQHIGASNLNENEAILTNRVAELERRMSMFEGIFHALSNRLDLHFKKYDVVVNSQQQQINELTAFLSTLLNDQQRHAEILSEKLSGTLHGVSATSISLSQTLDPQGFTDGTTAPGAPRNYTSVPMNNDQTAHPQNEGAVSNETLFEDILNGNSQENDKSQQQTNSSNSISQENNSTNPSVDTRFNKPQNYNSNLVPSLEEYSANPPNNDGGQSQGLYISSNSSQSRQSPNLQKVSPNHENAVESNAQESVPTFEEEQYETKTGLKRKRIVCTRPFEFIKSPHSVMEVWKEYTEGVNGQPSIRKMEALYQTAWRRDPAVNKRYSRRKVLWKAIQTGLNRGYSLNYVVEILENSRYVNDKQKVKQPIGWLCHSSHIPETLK
Outline: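 Yeast transcription factors, full-length or as DNA-binding domains, were expressed with a GST tag using PURExpress in vitro transcription/translation. At about 100-200 nM they were applied to universal all-10-mer Agilent arrays, double-stranded by primer extension on fresh or once-stripped slides. Fluorescent anti-GST detected bound protein, and masliner normalised the scans. E-scores for ungapped eight-base words, pooled with reverse complements, came from the Universal PBM Analysis Suite.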
In the case of GCTGCGTA, the “PBM E-score” value is reported as -0.124. With GCGCGGAA the “PBM E-score” value was -0.129. With CAGGTGTA the “PBM E-score” value was -0.0913. GTCCAATA was tested, and the “PBM E-score” value was 0.231. GAAGGGCC was tested, and the “PBM E-score” value was -0.143. With GAGACGCA the “PBM E-score” value was 0.06. In the case of AAGAAAAT, the “PBM E-score” value is reported as 0.178. In the case of CAGGTACG, the “PBM E-score” value is reported as -0.126. With CGCAATCA the “PBM E-score” value was 0.0447. For CTATAAGC, the “PBM E-score” value was -0.144. In the case of GAGACATC, the “PBM E-score” value is reported as 0.265. With GACTACTA the “PBM E-score” value was 0.0782. CATGCGGG was tested, and the “PBM E-score” value was -0.114. For ATGGCTAC, the “PBM E-score” value was 0.00174. In the case of CAAGCGTC, the “PBM E-score” value is reported as -0.0696. With AGGCGGGA the “PBM E-score” value was 0.0375. With CCTGACAA the “PBM E-score” value was 0.202. With CGAACGAC the “PBM E-score” value was 0.118. In the case of CCAGGGTC, the “PBM E-score” value is reported as -0.315. For TACGGCAA, the “PBM E-score” value was 0.127. AGGCTGTC was tested, and the “PBM E-score” value was -0.209. GATCCGCA was tested, and the “PBM E-score” value was -0.0581. CCCGCATC was tested, and the “PBM E-score” value was -0.309. With ACCTGTAC the “PBM E-score” value was 0.102. With AACCCCAA the “PBM E-score” value was -0.06. With ATTCCAGG the “PBM E-score” value was 0.0135. In the case of GATAAGTA, the “PBM E-score” value is reported as 0.118. In the case of AGACCTCG, the “PBM E-score” value is reported as 0.0578. CCCGTCCA was tested, and the “PBM E-score” value was -0.0207. For AAGCGATT, the “PBM E-score” value was -0.00343. In the case of CCATAGTC, the “PBM E-score” value is reported as -0.1. For GAATGGTC, the “PBM E-score” value was -0.135. ACAATGGT was tested, and the “PBM E-score” value was -0.147. CTTCGGGA was tested, and the “PBM E-score” value was 0.15. In the case of CCGCGTGA, the “PBM E-score” value is reported as 0.0677. TCAAGCAA was tested, and the “PBM E-score” value was -0.0994. In the case of AGCCGACG, the “PBM E-score” value is reported as 0.0208. With CGAGATCA the “PBM E-score” value was 0.0442. For CATTGCCA, the “PBM E-score” value was 0.104. CCACTCCA was tested, and the “PBM E-score” value was -0.176. For ACTTCGTG, the “PBM E-score” value was 0.00042. In the case of ACGCGGCT, the “PBM E-score” value is reported as -0.0473. In the case of AGCTACAT, the “PBM E-score” value is reported as 0.0298. In the case of CGAAAATC, the “PBM E-score” value is reported as 0.165. For TATCGTCA, the “PBM E-score” value was 0.108. With AGTACCTG the “PBM E-score” value was -0.0335. In the case of CCATTCTA, the “PBM E-score” value is reported as 0.0414. GGGTACCC was tested, and the “PBM E-score” value was -0.357. In the case of CAAAGCCA, the “PBM E-score” value is reported as -0.0655. With CATACATC the “PBM E-score” value was 0.151. AATACTGG was tested, and the “PBM E-score” value was -0.0248. CCCAGCAC was tested, and the “PBM E-score” value was -0.148. With GCGTCCTA the “PBM E-score” value was 0.168. With CCCGGCCG the “PBM E-score” value was -0.148. For CGTAAAGA, the “PBM E-score” value was 0.0242. With CTGCTAGA the “PBM E-score” value was 0.065. With CAGACCCA the “PBM E-score” value was -0.137. For CATATCAG, the “PBM E-score” value was 0.025. For GATTGCGA, the “PBM E-score” value was 0.0849. For CGGTTGAC, the “PBM E-score” value was -0.186. With AGATTCTG the “PBM E-score” value was -0.0613. With ACGCCAGA the “PBM E-score” value was -0.16. In the case of CAAGCTAA, the “PBM E-score” value is reported as -0.027. In the case of AGACTCCG, the “PBM E-score” value is reported as -0.0253. For CGATTGAC, the “PBM E-score” value was 0.151. For ATACGGGA, the “PBM E-score” value was 0.0286. With ACCCGACA the “PBM E-score” value was 0.149. CCTATATA was tested, and the “PBM E-score” value was 0.138. CAACTTCG was tested, and the “PBM E-score” value was -0.0475. AATATTTG was tested, and the “PBM E-score” value was 0.239. In the case of AGCGTCCA, the “PBM E-score” value is reported as -0.0794. CTTCCTGA was tested, and the “PBM E-score” value was -0.0052. In the case of CGCGGTGC, the “PBM E-score” value is reported as -0.123. With ATCCACAT the “PBM E-score” value was 0.0887. In the case of AGGGGAGG, the “PBM E-score” value is reported as -0.037. For AAACAGTG, the “PBM E-score” value was 0.0913. With CATGTAGA the “PBM E-score” value was 0.077. In the case of ATCTGCAC, the “PBM E-score” value is reported as -0.0895. With GCTGGATA the “PBM E-score” value was 0.0185. GACTTTCC was tested, and the “PBM E-score” value was 0.195. AGACGATG was tested, and the “PBM E-score” value was -0.0295. In the case of ATCCGACA, the “PBM E-score” value is reported as 0.128. With CACCACAC the “PBM E-score” value was -0.137. CGTGACAG was tested, and the “PBM E-score” value was 0.0649. In the case of CCGAAGCA, the “PBM E-score” value is reported as 0.149. With CAACATTG the “PBM E-score” value was 0.0465.
